In PubChem BioAssay AID1508623 (National Center for Advancing Translational Sciences (NCATS), 2021):
Among all 48,000 compounds or so, about 450 (0.94%) were called active. Another 19% or so got no clear call; they are omitted. Calls come from the whole dose curve; as a rule, active = well fitted inhibition curve with a large enough effect; inconclusive = small, poorly fitted or top-dose-only effect; inactive = no such curve, though single readings can be large or run the other way. Some of the results follow.

Assay: Primary qHTS for Identification of Small Molecule Inhibitors of Huntingtin Promoter Activity; note: nearly all actives have a fitted effect of over 50% in size
Conditions: HEK293 HTT promoter firefly luciferase reporter (activity 0% = vehicle and -100% = no light), 24 h; series mostly up to 57.5 µM; activity change, negative = inhibition: at the top concentration
How it was run: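 HEK293 cells carrying firefly luciferase reporters were seeded at 2,500 per well in Opti-MEM and cultured for 24 h. They were then treated with compounds at up to 57.5 uM final for 24 h at 37 degrees C before Dual-Glo luminescence readout.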

Activity change, negative = inhibition, inactive:
Cc1cc(C)c(S(=O)(=O)NCCc2cc3cc(C)c(C)cc3[nH]c2=O)c(C)c1 -9.57%, O=S(=O)(NCCc1nnc2ccc(SCc3ccc(C(F)(F)F)cc3)nn12)c1ccccc1 -21.1%, COc1cccc(C(c2sc3nc(-c4ccco4)nn3c2O)N2CCOCC2)c1 (centres undefined) 3.88%, Cc1ccc(Nc2nc3ccc(C)cc3nc2-n2nc(C)cc2C)c(C)c1 1.82%, CC(C)C(=O)Nc1nnc(S(=O)(=O)N2CCCCCC2)s1 -5.48%, COc1ccc(N(CC(=O)NCc2ccccc2Cl)S(=O)(=O)c2c(C)[nH]c(=O)[nH]c2=O)cc1 -21.8% [at 11.5 µM], O=C(C1COc2ccccc2O1)N1CCN(c2nc3c(F)cccc3s2)CC1 (centres undefined) 15.8%, NS(=O)(=O)c1cc(C2(O)NC(=O)c3ccccc32)ccc1Cl (centres undefined) 11.4%, COCCNC(=O)C1CCC(CNS(=O)(=O)c2ccc3c(c2)CC(C)N3C(C)=O)CC1 (centres undefined) -11.9%, COc1cc(C(CC(=O)Nc2ccc(Br)cn2)N2Cc3ccccc3C2=O)cc(OC)c1OC (centres undefined) -12.1%, Cc1c(C(=O)Nc2cccc(F)c2)oc2c1-c1nn(Cc3c(F)cccc3Cl)cc1CC2 -4.22%, Cc1ccc(Cn2c(=O)n(CC3CCC(C(=O)N4CCC(C)CC4)CC3)c(=O)c3sccc32)cc1 (centres undefined) -1.82%, Cc1ccc(CNC(=O)c2c(O)nc3ccccn3c2=O)cc1 -8.22%, Cc1c(Cl)cccc1NC(=O)NCc1c(-n2cccc2)sc2c1CCCC2 -6.85%, Cc1ccc(N(Cc2cccs2)C(=O)Nc2cccc(Cl)c2)cc1 -13.3%, Cc1oc2c(c1C(=O)Nc1ccccc1Br)C1=NCCN1C=N2 -1.72%, O=C(NCCc1cccs1)c1ccc(Cn2c(SCc3ccccc3)nc3cccnc32)cc1 -3.33%, COc1cccc(CNC(=O)c2sc3nc4n(c(=O)c3c2C)CCC4)c1 24.9%, CCOc1ccccc1NC(=O)Cn1cnc2c1c(=O)n(C)c(=O)n2C -6.68%, COc1ccc(N2CC3=C(C2=O)C(c2ccc(O)c(OC)c2)NC(=O)N3C)cc1 (centres undefined) -0.586%, CCOC(=O)c1ccccc1NC(=O)c1cc2c(s1)-c1c(C)cccc1OC2 -22.8%, CCOc1ccccc1NC(=O)CSc1nc2c(oc3ccccc32)c(=O)n1C(C)C -11.6%, COCCCNC(=O)c1cc(-c2ccc(OC)cc2)nc2n[nH]c(-c3ccc(Cl)cc3)c12 -26.2%, COc1ccc(CCNC(=O)c2cnc3ccc(C)cn3c2=O)cc1OC -7.52%, Cn1ncc2c(NCc3ccc(Cl)cc3)ncnc21 -17.3%, Cc1ccsc1CN(Cc1ccco1)C(=O)c1ccc(Cl)cc1 -23.5%, Cc1ccc(C)c(N2CCN(S(=O)(=O)c3ccc(-c4cc(C(F)(F)F)on4)s3)CC2)c1 -1.9%, O=C(CN1C(=O)COc2ccc(S(=O)(=O)N3CCOCC3)cc21)Nc1ccc(F)c(Cl)c1 -16.1%, O=C(Nc1nc2ccc(F)cc2s1)c1nc(SCc2ccccc2F)ncc1Cl -12.5%, COc1cc(OC)c(N(C)C(=O)c2cn(C)c(=O)c3cc(OC)c(OC)cc23)cc1Cl -2.7%, O=C(Nc1nc2c(F)cc(F)cc2s1)c1ccc2c(c1)OCCO2 73%, O=C(NCCc1ccc(Cl)cc1)C(=O)NCC(c1ccc2c(c1)OCO2)N1CCOCC1 (centres undefined) 0.35%, CC(C)c1c(C(=O)Nc2ccccc2)c(-c2ccccc2)c(-c2ccc(F)cc2)n1CC[C@@H](O)C[C@@H](O)CC(=O)O 17.9%, O=C(Nc1cc(C(F)(F)F)ccc1Cl)c1cc(-c2cccs2)nc2ccccc12 -1.77%, Cc1cc(C)c(S(=O)(=O)NCCc2sc(-c3cccnc3)nc2C)c(C)c1 -25.9%, Cc1cc(S(=O)(=O)Nc2cc3c(cc2Cl)n(C)c(=O)c(=O)n3C)ccc1F -11.8%, Cn1c(=O)c2cc(C(=O)N3CCN(c4cccc(C(F)(F)F)c4)CC3)sc2c2ccccc21 -19.1%, Cc1nn(S(=O)(=O)c2ccc(F)cc2)c(C)c1S(=O)(=O)N1CCCCC1 -7.8%, Cc1c(C(=O)Nc2cccc(C(F)(F)F)c2)oc2ccc(S(=O)(=O)N3CCC4(CC3)OCCO4)cc12 -30.8%, CCN[C@H]1CN(CCCOC)S(=O)(=O)c2sc(S(N)(=O)=O)cc21 -4.95%, COc1ccc(NC(=O)CSc2c3c(nc4ccccc24)CCC3)cc1Cl -14.9%, Cc1ccc2c(c1)N(C(=O)CCC(=O)Nc1ccc(F)cc1F)CC(C)O2 (centres undefined) -34.5%, CCOc1ccc(NC(=O)c2ccc3c(c2)nnn3C2CCCC2)cc1 -10.2%, CCc1ccccc1NC(=O)CSc1nc(C)c(C(=O)Nc2ccccc2)c(-c2ccc(Cl)cc2)c1C#N -38.9%, Cc1ccc(NC(=O)C2CCN(S(=O)(=O)c3cccc4nonc34)CC2)c(Cl)c1 1.26%, CCOC(=O)c1c(C)[nH]c(C)c1S(=O)(=O)N1CCC(C(=O)NCc2cccc(C)c2)CC1 -19.7%, O=C(Nc1ccc(-c2nc3ccccc3s2)c(O)c1)c1ccc(Br)cc1 12.3%, Cc1cccc(NC(=O)CSc2nnc3[nH]c(=O)cc(C)n23)c1C -4.2%, COc1ccc(N2CCN(C(=O)c3cnc(SC)nc3C)CC2)cc1 12.2%, COc1ccc(-c2cc3c(=O)n(CC(=O)Nc4ccc(Br)c(C)c4)ccn3n2)cc1OC -0.787%, O=C(CCn1c(=O)c2cccn2c2cccnc21)Nc1ccccc1Br -3.42%, Cc1ccc(S(=O)(=O)c2nnn3c2nc(N2CCN(c4ccccc4F)CC2)c2cc(Cl)ccc23)cc1C -11.1%, CC(=O)N1c2c(cc(Br)cc2S(=O)(=O)N2CCN(c3cc(C)ccc3C)CC2)CC1C (centres undefined) -11.7%, OC[C@H](Cc1ccccc1)Nc1nc(Oc2ccc3c(c2)CCC3)nc2c1ncn2Cc1ccc(-c2ccccc2)cc1 -9.29%, Cc1ccc(S(=O)(=O)c2nnn3c2nc(N2CCCC2)c2sccc23)cc1C -11.3%, CC1=C(C#N)C(NC(=O)c2ccccc2Cl)(C(F)(F)F)C(=O)N1 (centres undefined) 0.489%, COc1ccc(OC)c(NC(=O)C2=C(C)C(=O)OC23CCCCCC3)c1 -6.6%, CCN(CC)CCCNC(=O)c1cnc(SC)nc1-c1ccccc1 -2.2%, CCN(CC)CCCNC(=O)c1cn(C)c2ccc(S(=O)(=O)N(C)C3CCCCC3)cc2c1=O -5.72%, CCOCCc1nn2c(=O)cc(COC(=O)CNC(=O)c3cccc(C)c3)nc2s1 -3.99%, Cc1ccc2c(=O)cc(C(=O)Nc3nc4ccc(Cl)cc4s3)oc2c1C -7.67%, COc1cccc(-c2ncnn2-c2sc3c(c2C#N)CCCCC3)c1OC 13.3%, O=C(COc1ccc(Cl)cc1)Nc1nnc(S(=O)(=O)N2CCc3ccccc32)s1 -16.7%, COc1ccc(CNc2nc3c(-c4cccc(C)c4)nnn3c3ccccc23)cc1 -10.9%, CCOc1ccc(NC(=O)c2cnc(N3CCCC3)nc2C)cc1 -11.5%, Cc1nn(CC(=O)N2CCC(C)CC2)c(=O)c2cc3sccc3n12 -0.621%, CCOc1ccc(CCNC(=O)c2cn(C)c3ccc(S(=O)(=O)N4CCCCCC4)cc3c2=O)cc1OCC -11.1%, CCOC(=O)c1c(C)[nH]c(C)c1S(=O)(=O)N(C)CC(=O)N1CCN(c2ccccc2)CC1 -14.7%, COc1ccccc1NC(=O)c1c(NCc2ccc(OC)c(OC)c2OC)sc2c1CCC2 -25.3%, CC(C)c1ccc(NC(=O)Cn2cc(S(=O)(=O)N3CCN(c4ccccc4F)CC3)c3ccccc3c2=O)cc1 -4.07%, OC(Cn1cncn1)(Cn1cncn1)c1ccc(F)cc1F, Cc1cc(Cl)ccc1OCc1nc(-c2ccc(-n3cccc3)cc2)no1 -14.8% [at 11.5 µM], CCCCOC(=O)c1ccc(NC(=O)c2cc3c(=O)n4cccc(C)c4nc3s2)cc1 19.4%, CCCNC(=O)CCc1nnc2ccc(N3CCN(c4cccc(OC)c4)CC3)nn12 6.91%, CCCCN(C)CCNC(=O)c1c2c(nc3ccccc13)C(=O)N(C1CCCCC1)C2 -8.17%, CC(C)(C)OC(=O)N1CCC(c2c(C(=O)NCCN3CCc4ccccc4C3)cnn2-c2ccc(F)cc2F)CC1 -9.55%, Cc1ccc(CN2CCC(CNC(=O)Nc3ccc(Cl)cc3)C2)cc1 (centres undefined) -25.2%, Cc1ccc(NC(=O)CCn2c(=O)c3cccn3c3ccccc32)cc1C -15.6%, Cc1ccc(-n2c(=O)c3cccnc3n2CC(=O)Nc2ccc(Br)cc2)cc1C -10.2%, CCC(=O)N1CCc2cc(Br)cc(S(=O)(=O)CCC(=O)NCCc3cccc(C)c3)c21 -2.25%, Cn1ncc2c(N3CCN(c4cccc(Cl)c4)CC3)ncnc21 -20.5%, Cc1cc(C)cc(NC(=O)C(Cc2ccccc2)NS(=O)(=O)c2ccc3c(c2)c(=O)n(C)c(=O)n3C)c1 (centres undefined) -31.6%, COc1ccc(C)cc1NC(=O)CCS(=O)(=O)c1cc2c3c(c1)CCN3C(=O)CC2 -6.39%, CCOc1ccc(Oc2nc(NCC(C)C)nc(N3CCOCC3)n2)nn1 16.2%, CC(=O)N1CCc2cc(CNC(=O)Cc3ccc(F)cc3)ccc21 62.6%, COc1cccc(CNC(=O)C(=O)NCC(c2ccco2)S(=O)(=O)c2cccs2)c1 (centres undefined) -26.2%, CC(C)(C)C(=O)Cn1c(=O)n(-c2ccc(Cl)cc2)c(=O)c2c3c(sc21)CCCC3 -6.59%, O=C(/C=C/c1ccccc1)N1CCN(Cc2cc(=O)n3nc(-c4ccccc4F)sc3n2)CC1 -11.1%, C[C@@H](NCCCc1cccc(C(F)(F)F)c1)c1cccc2ccccc12 -9.01%, CC(=O)Nc1cccc(-n2c(=O)n(C3CC3)c(=O)c3c(Nc4ccc(I)cc4F)n(C)c(=O)c(C)c32)c1 9.87%, COc1ccc(N2CC(NC(=O)/C=C\c3ccccc3)CC2=O)cc1 (centres undefined) 5.93%, O=C(Cn1c(SCCOc2ccccc2)nc2ccccc21)N1CCOCC1 -10.8%, COc1ccc(Cl)cc1N(C)C(=O)c1ccc2c(=O)n3c(nc2c1)CCCCC3 -18.5%, COc1ccc(NC(=O)Cn2c(=O)n(CCC(=O)NCc3ccccc3OC)c(=O)c3ccccc32)cc1Cl -10.4%
